From article PMC4336329 (PLoS ONE, 2015)
The whole screen tested about 310,000 compounds, of which about 2,200 (0.71%) showed an effect of 50% or more. Effects have a minus sign here. The list shows a part of the results.

Biological target: human ether-à-go-go-related gene (hERG) potassium channel (human, UniProt Q12809)
Assay: primary screen, population patch clamp on CHO cells stably expressing hERG
Description: Briefly, Chinese hamster ovary (CHO) cells stably expressing the hERG channel were dislodged from tissue culture flasks and dispensed into PPC plates. […] During the recording, background leak currents were estimated by a 100 ms step to -80 mV from an initial holding potential of -70 mV and subtracted from the subsequent current measurement. The campaign was conducted in two phases using slight differences in recording protocol. In the first phase, the initial voltage pulse used a 100 ms step to -30 mV from a holding potential of -70 mV, a 2 s conditioning step to +25 mV, and a 2 s test step to -30 mV. During the second phase of the screen, the potential during the conditioning step was raised to +45 mV. In both phases of the campaign, a secondary voltage pulse was applied using the same parameters as the second phase initial pulse. The initial and secondary pulses were applied in the absence of compound, and upon application of 1 μM and 10 μM test concentrations. Small molecule effects on hERG current density were quantified by […].

Sequence of human ether-à-go-go-related gene (hERG) potassium channel (Q12809 whole entry, looked up): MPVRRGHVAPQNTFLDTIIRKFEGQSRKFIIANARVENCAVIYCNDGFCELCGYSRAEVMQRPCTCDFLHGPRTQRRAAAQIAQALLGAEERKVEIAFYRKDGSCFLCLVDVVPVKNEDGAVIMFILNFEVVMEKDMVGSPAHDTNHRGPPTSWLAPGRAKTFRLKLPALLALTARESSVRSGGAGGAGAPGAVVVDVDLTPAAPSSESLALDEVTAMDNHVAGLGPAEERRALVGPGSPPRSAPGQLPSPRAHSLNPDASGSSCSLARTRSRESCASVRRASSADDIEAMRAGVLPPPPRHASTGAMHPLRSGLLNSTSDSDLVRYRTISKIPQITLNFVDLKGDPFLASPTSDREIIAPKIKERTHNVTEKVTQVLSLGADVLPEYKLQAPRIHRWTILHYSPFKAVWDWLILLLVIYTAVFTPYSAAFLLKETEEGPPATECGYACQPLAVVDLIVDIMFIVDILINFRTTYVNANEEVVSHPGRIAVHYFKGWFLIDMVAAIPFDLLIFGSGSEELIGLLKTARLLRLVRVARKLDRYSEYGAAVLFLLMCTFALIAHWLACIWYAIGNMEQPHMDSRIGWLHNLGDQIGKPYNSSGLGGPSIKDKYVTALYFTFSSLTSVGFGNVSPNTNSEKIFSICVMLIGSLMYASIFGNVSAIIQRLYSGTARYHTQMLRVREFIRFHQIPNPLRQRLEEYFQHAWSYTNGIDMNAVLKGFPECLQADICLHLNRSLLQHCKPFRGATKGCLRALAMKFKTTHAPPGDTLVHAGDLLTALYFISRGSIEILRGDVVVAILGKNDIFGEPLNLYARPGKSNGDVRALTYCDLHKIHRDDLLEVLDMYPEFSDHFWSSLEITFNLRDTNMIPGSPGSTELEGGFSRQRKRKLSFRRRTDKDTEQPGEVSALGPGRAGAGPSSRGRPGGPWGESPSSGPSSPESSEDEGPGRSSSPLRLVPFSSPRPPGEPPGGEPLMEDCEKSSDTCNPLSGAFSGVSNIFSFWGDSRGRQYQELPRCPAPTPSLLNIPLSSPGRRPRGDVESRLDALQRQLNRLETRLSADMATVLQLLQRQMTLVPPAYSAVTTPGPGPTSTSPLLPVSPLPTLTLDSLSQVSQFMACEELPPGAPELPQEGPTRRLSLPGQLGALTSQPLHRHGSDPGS

SMILES	hERG current change (%, negative = inhibition) at 1uM
COc1ccc(/C=N/n2c(-c3cccs3)n[nH]c2=S)cc1	7.35%
O=C(Nc1ccccc1F)c1cc2nc(C(F)F)cc(C(F)F)n2n1	-1.73%
Cn1c(=O)[nH]c(=O)c2c1[nH]c(=S)n2Cc1ccccc1	15.1%
Cc1ccc(NC(=O)CSCC(=O)Nc2ccc(S(=O)(=O)N3CCCC3)cc2)cc1	5.24%
COc1ccc(N2C(=O)c3ccccc3NC23CCC(C)CC3)cc1 (stereo not shown)	8.03%
CC(Oc1ccc(Br)cc1)C(=O)Nc1ccc(S(=O)(=O)Nc2nccs2)cc1 (stereo not shown)	7.65%
Cc1cc(=O)[nH]c2cc(O)ccc12	1.33%
Cc1ccc(-n2c(-c3cccs3)nc3ccccc3c2=O)cc1	13.3%
O=C(O)C(=O)O.S=C(NCC1CCCO1)N1CCN(Cc2ccccc2)CC1 (stereo not shown)	-7.77%
COc1ccc(NC(=O)N2CCc3ccccc32)cc1	5%
CN(C)C(=O)c1noc2cc([N+](=O)[O-])ccc12	-5.1%
CCOC(=O)c1c(NC(=O)CC2SC(N)=NC2=O)sc(C)c1C (stereo not shown)	16.2%
CN(C)S(=O)(=O)N1CCN(C(=O)N2CCCCC2)CC1	2.59%
Cc1ccc(C(=O)C(O)C(c2ccc(C)cc2)N2CCCCC2)cc1 (stereo not shown)	-4.55%
COCCN1C(=O)N[C@@H](CCc2ccccc2)[C@H](C(=O)OC)[C@H]1C	18.2%
CSc1nc2c(c(=O)[nH]1)C(c1ccc(F)cc1)CC(=O)N2 (stereo not shown)	9.96%
CN(CC(=O)Nc1ccccc1Cl)C(=O)COC(=O)C1=COCCO1	2.66%
CSc1ccccc1NC(=O)CN(C)C(=O)c1ccc(-n2cccn2)cc1	6.41%
CC(=O)O[C@H]1C[C@@H]2CC[C@@H]3[C@H](CC[C@]4(C)C(=O)CC[C@@H]34)[C@@]2(C)C[C@@H]1OC(C)=O	12.8%
CC(C)C1CC(c2csc(N)n2)CCO1 (stereo not shown)	14.9%

SMILES	hERG current change (%, negative = inhibition) at 1uM
CCCC(=O)Nc1ccc(C(=O)/C=C/c2ccc(SC)cc2)cc1	20.6%
C/C(CCC1CC(C)OC1=O)=N/Nc1nc(-c2ccccc2)cs1 (stereo not shown)	14%
O=C(NC1CCCCC1)c1sc(=S)n2c1[nH]c(=O)c1ccccc12	15.8%
Cc1cc2c(cc(C(=O)NCCCN3CCOCC3)n2Cc2ccc(Cl)cc2)o1	-7.25%
CCOc1ccc(N(CC(=O)NCC2CCCO2)S(=O)(=O)c2ccc(SC)cc2)cc1 (stereo not shown)	-6.73%
O=C(NC1CCCCC1)n1c(=O)oc2ccccc21	6%
CC(=O)Nc1ccc(SCC(=O)Nc2ccccc2Oc2ccccc2)cc1	3.2%
CCOC(=O)C1CCN(c2c(NCc3ccc(N(C)C)cc3)c(=O)c2=O)CC1	-1.04%
Cn1cc(C(=O)C(F)(F)F)c2ccccc21	7.78%
COc1ccccc1NC(=O)CSc1nnc(-c2ccoc2C)n1CC1CCCO1 (stereo not shown)	13.6%
COc1ccc(N2CCN(C(=O)c3cc(C4CC4)nn3-c3ccccc3)CC2)cc1	5.29%
Cc1c(C(=O)NC(C)c2ccc(-n3ccnc3)cc2)cccc1[N+](=O)[O-] (stereo not shown)	-36%
COc1ccc(C(=O)NCCS(=O)(=O)N2CCN(C(=O)c3ccco3)CC2)cc1	-0.137%
COc1ccc(C(=O)NCCS(=O)(=O)N2CCc3ccccc3C2)cc1	4.1%
CC(C)CNC(=O)C1CCN(S(=O)(=O)c2ccc3c(c2)OCCO3)CC1	8.36%
COc1cc(NC(=O)c2cnc(NCc3ccccc3)nc2C)cc(OC)c1OC	11.3%
Cc1ccc(S(=O)(=O)Nc2ccc(NC(=O)c3c(F)c(F)c(F)c(F)c3F)cc2)cc1	1.72%
O=C(CN1CCN(S(=O)(=O)c2ccccc2)CC1)Nc1ccc(N2CCOCC2)cc1	10.8%
CC1C(=O)C(C)C(c2ccc(Cl)cc2)NC1c1ccc(Cl)cc1.Cl (stereo not shown)	16%
CCN1CCCC1CN(Cc1cc2cc(C)ccc2[nH]c1=O)C(=O)Nc1ccccc1OC (stereo not shown)	-12%

SMILES	hERG current change (%, negative = inhibition) at 1uM
CCCCc1c(C(=O)O)cc(OC)cc1C(=O)O	12.7%
CC(C)(C)C(=O)O/N=C(\N)Cc1ccc(-c2csnn2)cc1	5.34%
Cc1cc(N2CC(C)OC(C)C2)n2cc(-c3ccccc3)nc2n1 (stereo not shown)	-29.7%
CN(C)[C@@H]1CCC[C@H]1OC(=O)C(c1ccccc1)c1ccccc1	-40.2%
Cc1cccc(NC(=O)CN2C(=O)NC3(CCCC3)C2=O)n1	4.59%
O=C(CNc1cccc2ccccc12)N/N=C/c1ccc(C(=O)O)cc1	8.61%
CC1(C)C(C=C(Cl)Cl)C1C(=O)N(Cc1ccc(Cl)cc1)C1CCS(=O)(=O)C1 (stereo not shown)	-2.82%
O=c1[nH]c(N2CCCCCC2)nc2ncn(Cc3ccccc3)c12	6.1%
Br.CCCCn1c(=N)n(CC(=O)c2ccc(Br)s2)c2ccccc21	2.98%
Cc1cc(F)c(F)c(C(=O)N2CCC(C)CC2)c1Cl	5.24%
COc1cccc(C(=O)N2N=C(c3ccccn3)CC2(O)C(F)(F)F)c1 (stereo not shown)	12.2%
COc1nc(N)nc(N)c1NS(=O)(=O)c1ccc(C)cc1	20.5%
Cc1ccc(C(=O)CSc2nnc(-c3ccncc3)n2C)cc1	12%
CCOc1ccc(C2(C#N)CC[N+](C)(C)CC2)cc1.[Br-]	9.8%
C/C(=C\c1ccco1)C1Nc2cccc3cccc(c23)N1	-4.32%
O=C(COc1ccccc1)Nc1ccc(N2CCN(C(=O)c3cccs3)CC2)cc1	11.5%
COc1ccc(NC(=S)NC23CC4CC(CC(C4)C2)C3)cc1OC	10.8%
O=C(O)/C=C/C(=O)N(Cc1ccccc1)Cc1ccco1	-0.159%
